Test results from PMC4336329 (PLoS ONE, 2015).
Screen size: about 310,000 compounds; about 14,000 (4.5%) showed an effect of 50% or more. The effect is printed as a negative number. Some of the results follow.

Each molecule was assayed against human ether-à-go-go-related gene (hERG) potassium channel (human, UniProt Q12809) (assay: primary screen, population patch clamp on CHO cells stably expressing hERG).
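Also: peak tail current of the secondary pulse compared with the same well before compound.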

Chain of human ether-à-go-go-related gene (hERG) potassium channel (Q12809 whole entry, looked up): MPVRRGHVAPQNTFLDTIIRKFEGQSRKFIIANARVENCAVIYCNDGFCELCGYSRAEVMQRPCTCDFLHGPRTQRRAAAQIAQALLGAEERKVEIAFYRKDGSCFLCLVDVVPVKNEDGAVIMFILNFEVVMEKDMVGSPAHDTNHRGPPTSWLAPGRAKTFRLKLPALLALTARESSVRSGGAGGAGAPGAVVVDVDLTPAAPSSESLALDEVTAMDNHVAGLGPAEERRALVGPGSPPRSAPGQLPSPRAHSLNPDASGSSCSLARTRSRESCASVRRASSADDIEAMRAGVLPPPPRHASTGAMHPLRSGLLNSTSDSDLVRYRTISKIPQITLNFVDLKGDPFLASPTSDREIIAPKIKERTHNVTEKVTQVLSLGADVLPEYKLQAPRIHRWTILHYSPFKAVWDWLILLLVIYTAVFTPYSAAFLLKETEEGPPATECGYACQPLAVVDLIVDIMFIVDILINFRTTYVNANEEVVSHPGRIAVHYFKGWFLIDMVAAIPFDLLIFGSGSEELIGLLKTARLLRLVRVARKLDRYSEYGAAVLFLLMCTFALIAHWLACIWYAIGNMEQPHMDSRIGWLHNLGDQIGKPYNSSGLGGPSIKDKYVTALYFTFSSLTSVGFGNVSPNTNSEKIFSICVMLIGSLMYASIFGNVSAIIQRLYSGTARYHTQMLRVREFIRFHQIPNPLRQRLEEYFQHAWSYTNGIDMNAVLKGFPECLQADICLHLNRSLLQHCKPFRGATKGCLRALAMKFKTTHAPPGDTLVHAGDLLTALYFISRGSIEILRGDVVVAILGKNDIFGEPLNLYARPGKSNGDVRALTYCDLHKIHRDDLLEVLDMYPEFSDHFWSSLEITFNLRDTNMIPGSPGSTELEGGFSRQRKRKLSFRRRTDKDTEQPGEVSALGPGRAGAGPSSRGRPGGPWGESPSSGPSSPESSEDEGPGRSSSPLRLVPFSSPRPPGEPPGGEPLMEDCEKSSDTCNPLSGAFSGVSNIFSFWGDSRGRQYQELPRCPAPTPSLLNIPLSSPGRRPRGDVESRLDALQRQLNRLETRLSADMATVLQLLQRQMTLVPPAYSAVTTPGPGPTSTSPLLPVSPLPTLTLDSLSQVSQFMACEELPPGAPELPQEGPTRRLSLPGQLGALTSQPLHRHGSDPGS

| Structure (SMILES) | hERG current change (%, negative = inhibition) at 10uM [%] |
| --- | --- |
| CN(C)S(=O)(=O)c1ccc(C(=O)Nc2nnc(-c3cccs3)o2)cc1 | 31.7 |
| CC(C)C(=O)c1cn(Cc2ccccc2C#N)c2ccccc12 | -10.8 |
| O=C1C2C3CC(C(Br)C3Br)C2C(=O)N1c1nccs1 (stereo not drawn) | 11.2 |
| Cc1nn(C)c(C)c1/C=C/C(=O)c1cccs1 | -8.08 |
| CCCNC(=O)N1CCCC(C(=O)c2cccc(Cl)c2)C1 (stereo not drawn) | -8.61 |
| CCOC(=O)C1CCN(C(=O)CN(Cc2ccccc2)S(C)(=O)=O)CC1 | -11.1 |
| CCC1(C)Cc2c(c(=O)n(-c3ccccc3)c3ncnc(N)c23)CO1 (stereo not drawn) | 7.92 |
| O=C(Nc1ccc2c(c1)OCO2)c1c(F)cccc1F | 3.95 |
| COCCCNCC(=O)Nc1sc(C)c(C)c1C(=O)OC.O=C(O)C(=O)O | -2.86 |
| CC1CN(C(=O)c2ccc(S(=O)(=O)Nc3ccccc3Cl)cc2)CC(C)O1 (stereo not drawn) | 13.3 |
| Oc1ccc(-n2cnnn2)cc1 | 9.44 |
| c1cn(CCCNc2ncnc3nc[nH]c23)cn1 | 8.93 |
| CCN1CCN(C(=S)Nc2ccccc2Cl)CC1 | 19.4 |
| Cc1ccc(N=Nc2c(=O)[nH]n3c(C)cc(C)nc23)cc1 | -3.62 |
| COC(=O)c1cccc(NC(=O)Nc2ccc(Cl)c(Cl)c2)c1 | -0.798 |
| Cc1ccc(S(=O)(=O)NC2CCCC2)cc1C(N)=O | 20.1 |
| Brc1ccc(-c2noc(-c3ccccn3)n2)o1 | 2.68 |
| COc1ccc(C/C(N)=N/n2cnnc2)cc1 | 4.82 |
| Cc1ccc(NC(=O)CN2C(=O)S/C(=C\c3ccc(-c4cccc(C(=O)O)c4C)o3)C2=O)cc1 | 2.07 |
| COc1ccc2cc(CCNC(=O)c3c(-c4ccccc4Cl)noc3C)c(=O)[nH]c2c1 | -4.66 |
| Cc1ccccc1NC(=O)c1cccc2nccnc12 | -12.7 |
| Cc1cc(C)n(-c2ccc(C(=O)Nc3ccccn3)cc2)n1 | 4.43 |
| CNC(=O)c1cc2ccccc2o1 | -8.44 |

| Structure (SMILES) | hERG current change (%, negative = inhibition) at 10uM [%] |
| --- | --- |
| Cc1ccc(NP(=O)(c2ccc(N(C)C)cc2NC(=O)c2cccs2)N2CCOCC2)cc1Cl (stereo not drawn) | -2.7 |
| COc1ccc(-c2[nH]ncc2CN2CCC(O)(c3ccc(Cl)cc3)CC2)cc1 | -71.8 |
| Cc1ccccc1-n1c(SCc2c(C)noc2C)nnc1-c1c[nH]c2ccccc12 | 15.1 |
| CC(=O)c1cc(C(=O)N2CCCC(C(=O)c3ccc(Cl)cc3)C2)cs1 (stereo not drawn) | -31.9 |
| O=C(COC(=O)CSc1ccc2ccccc2c1)NC1CCCC1 | 22.9 |
| COc1ccc(C(CCc2ccc(C)o2)NC(=O)Nc2ccc(OC)cc2OC)cc1 (stereo not drawn) | -17.7 |
| O=S(=O)(NC1CC2CCC1C2)c1ccc2c(c1)OCCO2 (stereo not drawn) | -6.04 |
| Cc1ccc(/C=C/C(=O)O)cc1S(=O)(=O)NCc1cccnc1 | 9.04 |
| COc1cccc(/C=N/NC(=O)c2c(-c3ccccc3)noc2C)c1O | -0.726 |
| CCOC(=O)C1Nc2ccc(OC(F)(F)F)cc2C2C=CCC12 (stereo not drawn) | 13 |
| CN(CC(=O)Nc1ccc(Cl)c(C(F)(F)F)c1)C(=O)C1CSC2(C)CCC(=O)N12 (stereo not drawn) | -6.57 |
| CCC(=O)OC1(C)C(=O)C=C2C=C(c3ccc(C#N)cc3)OC=C2C1=O (stereo not drawn) | 5.58 |
| Nc1ccc(Nc2ccncc2[N+](=O)[O-])cc1 | 10.1 |
| COc1ccc(CN(C)C(=O)c2ccc(NC(=O)CC3SC(N4CCCC4)=NC3=O)cc2)c(OC)c1OC (stereo not drawn) | 13.3 |
| O=C(/C=C/c1ccccc1[N+](=O)[O-])OCC(=O)N1CCCC1 | 12 |
| CCOc1ccc(C(=O)Nc2ccc(S(=O)(=O)N3CCOCC3)cc2)cc1OCC | -8 |
| CCN1CCN(c2ccc(S(=O)(=O)N3CCCCC3)cc2NC(=O)Cc2ccccc2)CC1 | -33.5 |
| Cc1ccc(S(=O)(=O)N2CCN(C(=O)CCCN3C(=O)NC4(CCCC4)C3=O)CC2)cc1C | 18.3 |
| C/C(=N\Nc1nc(-c2ccccn2)nc2ccccc12)c1ccc(F)cc1 | 11 |
| CCCCOC(=O)Nc1nnc(CC)s1 | 19.1 |
| CCCCOc1ccc(-c2nnn(CC(=O)c3c[nH]c4ccccc34)n2)cc1 | 22 |
| Cc1csc2c(N3CCC(C(=O)O)CC3)ncnc12 | 9.95 |
